The other results are listed elsewhere or left out. Sequences were assembled here from the parent chain. Values near 0.05 are background.
B1: TEV protease; numbered along this chain (parent)
chain: MGESLFKGPRDYNPISSSICHLTNESDGHTTSLYGIGFGPFIITNKHLFRRNNGTLVVQSLHGVFKVKDTTTLQQHLVDGRDMIIIRMPKDFPPFPQKLKFREPQREERICLVTTNFQTKSMSSMVSDTSCTFPSGDGIFWKHWIQTKDGQCGSPLVSTRDGFIVGIHSASNFTNTNNYFTSVPKNFMELLTNQEAQQWVSGWRLNADSVLWGGHKVFMVKPEEPFQPVKEATQL

Variants of: B1
Assay: raw area under fraction-flipped curve 0-4 h after induction (AUC4h, not background-subtracted), DNA-recorder readout of cleavage of the substrate (dimensionless); higher = more cleavage of the substrate by the protease variant
Details: temperature: 34 °C; time window: 0-4 h after rhamnose induction
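Further: Bxb1 expression induced with 0.2% (w/v) L-rhamnose at OD600 near 0.5, cultures sampled hourly, flipped fraction per protease–substrate barcode pair counted by paired-end Illumina sequencing.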

Variant | area with substrate ENLDFQS | area with substrate ENLEFQS | area with substrate ENLFFQS | area with substrate ENLNFQS | area with substrate ENLQFQS | area with substrate ENLRFQS | area with substrate ENLSFQS | area with substrate ENLTFQS | area with substrate ENLHFQS | area with substrate ENLKFQS | area with substrate ENLLFQS | area with substrate ENLMFQS | area with substrate ENLPFQS | area with substrate ENLVFQS | area with substrate ENLWFQS | area with substrate ENLIFQS | area with substrate ENLGFQS
MGESLFKGPRDYNPISSSICHLTNESDGHTTSLYGIGFGPFIITNKHLFRRNNGTLVVKSLHGVFKVKDTTTLQQHLVDGRDMIIIRMPKDFPPFPQKLKFREPQREERICLVTTNFQTKSMSSMVSDTSCTFPSGDGIFWKHWIQTKDGQCGSPLVSTRDGFIVGIHSASNFTNTNNYFTSVPKNFMELLTNQEAQQWVSGWRLNADSVLWGGHKVFMVKPEEPFQPVKEATQL [Q59K] | 0.055 | 0.0945 | 0.0919 | 0.0581 | 0.0841 | 0.0728 | 0.0721 | 0.071 |  |  |  |  |  |  |  |  | 
MGESLFKGPRDYNPISSSICHLTNESDGHTTSLYGIGFGPFIITNKHLFRRNNGTLVVQSLHGVFKVKDTTTLQQHLVDGRDMIIIRMPKDFPPFPQKLKFREPQREERICLVTTNFQTKSISSMVSDTSCTFPSGDGIFWKHWIQTKDGQCGSPLVSTRDGFIVGIHSASNFTNTNNYFTSVPKNFMELLTNQEAQQWVSGWRLNADSVLWGGHKVFMVKPEEPFQPVKEATQL [M122I] | 0.059 | 0.0619 | 0.073 | 0.0571 | 0.0766 | 0.0784 |  | 0.0771 | 0.0685 | 0.078 | 0.0603 | 0.0759 | 0.0473 | 0.11 | 0.0344 |  | 
MGESLFKGPRDYNPISSSICHLTNESDGHTTSLYGIGFGPFIITNKHLFRRNNGTLVVQSLHGVFKVKDTTTLQQHLVDGRHMIIIRMPKDFPPFPQKLKFREPQREERICLVTTNFQTKSMSSMVSDTSCTFPSGDGIFWKHWIQTKDGQCGSPLVSTRDGFIVGIHSASNFTNTNNYFTSVPKNFMELLTNQEAQQWVSGWRLNADSVLWGGHKVFMVKPEEPFQPVKEATQL [D82H] | 0.0514 | 0.0594 | 0.0582 | 0.0675 | 0.0733 | 0.0408 | 0.0576 |  |  | 0.0575 | 0.0569 | 0.0464 | 0.062 |  | 0.0589 |  | 
MGESLFKGPRDYNPISSSICHLTNESDGHTTSLYGIGFGPFIITNKHLFRRNNGTLVVQSLHGVFKVKDTTTLQQHLVDGRDMIIIRMPKDFPPFPQKLKFREPQREERICLVTTNFQTKSMNSMVSDTSCTFPSGDGIFWKHWIQTKDGQCGSPLVSTRDGFIVGIHSASNFTNTNNYFTSVPKNFMELLTNQEAQQWVSGWRLNADSVLWGGHKVFMVKPEEPFQPVKEATQL [S123N] | 0.059 | 0.0638 | 0.0748 | 0.061 | 0.0857 | 0.0788 | 0.0661 |  | 0.0989 | 0.0976 | 0.0824 | 0.0682 |  |  | 0.0574 | 0.082 | 
MGESLFKGPRDYNPISSSICHLTNESDGHTTSLYGIGFGPFIITNKHLFRRNNGTLVVQSLHGVFKVKDTTTEQQHLVDGRDMIIIRMPKDFPPFPQKLKFREPQREERICLVTTNFQTKSMSSMVSDTSCTFPSGDGIFWKHWIQTKDGQCGSPLVSTRDGFIVGIHSASNFTNTNNYFTSVPKNFMELLTNQEAQQWVSGWRLNADSVLWGGHKVFMVKPEEPFQPVKEATQL [L73E] | 0.0598 |  | 0.0552 | 0.05 | 0.0279 |  |  |  | 0.0278 | 0.0516 |  | 0.0555 | 0.049 |  |  | 0.0617 | 
MGESLFKGPRDYNPISSSICHLTNESDGHTTSLYGIGFGPFIITNKHLFRRNNGTLVVQSLHGVFKVKDTTTLQQHLVDGRDMIIIRMPKDFPPFPQSLKFREPQREERICLVTTNFQTKSMSSMVSDTSCTFPSGDGIFWKHWIQTKDGQCGSPLVSTRDGFIVGIHSASNFTNTNNYFTSVPKNFMELLTNQEAQQWVSGWRLNADSVLWGGHKVFMVKPEEPFQPVKEATQL [K98S] | 0.0672 |  |  | 0.0653 |  | 0.0702 | 0.0679 | 0.0519 |  | 0.0799 |  |  | 0.0593 |  |  |  | 
MGESLFKGPRDYNPISSSICHLTNESDGHTTSLYGIGFGPFIITNKHLFRRNNGTLVVQSLHGVFKVKDTTTLQQHLVDGRDMIIIRMPKDFPPFPQFLKFREPQREERICLVTTNFQTKSMSSMVSDTSCTFPSGDGIFWKHWIQTKDGQCGSPLVSTRDGFIVGIHSASNFTNTNNYFTSVPKNFMELLTNQEAQQWVSGWRLNADSVLWGGHKVFMVKPEEPFQPVKEATQL [K98F] | 0.0591 |  | 0.0795 | 0.0591 |  |  | 0.0446 |  |  | 0.0811 | 0.0836 |  |  |  | 0.0708 |  | 0.0649
MGESLFKGPRDYNPISSSICHLTNESDGHTTSLYGIGFGPFIITNKHLFRRNNGTLVVQSLHGVFKVKDTTTLQQHLVDGRDMIIIRMPKDFPPFPQKLKFREPQREERICLVTTPFQTKSMSSMVSDTSCTFPSGDGIFWKHWIQTKDGQCGSPLVSTRDGFIVGIHSASNFTNTNNYFTSVPKNFMELLTNQEAQQWVSGWRLNADSVLWGGHKVFMVKPEEPFQPVKEATQL [N116P] | 0.0571 | 0.0741 | 0.0908 | 0.0643 | 0.0909 | 0.0776 | 0.0696 |  | 0.0715 | 0.0758 |  |  | 0.0452 | 0.0847 |  |  | 0.0635
MGESLFKGPRDYNPISSSICHLTNESDGHTTSLYGIGFGPFIITNKHLFRRNNGTLVVQSLHGVFKVKDTTTLQQHLVDGRDMIIIRMPKDFPPFPQKLKFREPQREERICLVTTYFQTKSMSSMVSDTSCTFPSGDGIFWKHWIQTKDGQCGSPLVSTRDGFIVGIHSASNFTNTNNYFTSVPKNFMELLTNQEAQQWVSGWRLNADSVLWGGHKVFMVKPEEPFQPVKEATQL [N116Y] | 0.0729 | 0.0391 | 0.08 | 0.0417 | 0.0674 | 0.0772 | 0.0638 |  |  |  | 0.0623 |  | 0.0498 | 0.07 |  |  | 
MGESLFKGPRDYNPISSSICHLTNESDGHTTSLYGIGFGPFIITNKHLFRRNNWTLVVQSLHGVFKVKDTTTLQQHLVDGRDMIIIRMPKDFPPFPQKLKFREPQREERICLVTTNFQTKSMSSMVSDTSCTFPSGDGIFWKHWIQTKDGQCGSPLVSTRDGFIVGIHSASNFTNTNNYFTSVPKNFMELLTNQEAQQWVSGWRLNADSVLWGGHKVFMVKPEEPFQPVKEATQL [G54W] | 0.0486 | 0.0584 | 0.062 | 0.0553 |  | 0.059 | 0.0522 |  | 0.0574 | 0.0604 | 0.0566 |  | 0.0593 |  |  |  | 

Reference: the supplement of paper PMC12217912
